Assay results published in the RNAGym collection of RNA variant scans (doi:10.7554/elife.90254).
The source gives no read counts; variants with many changes may rest on few reads.

B1: LINE1-full (parent)
chain: UACGUAGGUGGUUUUCCCCUGAUAGUGCUAAGGGGGCCUGGAAGUUUGGACUGGGCAGAGCUCAACACAGCGUGGCAAAGUGGCUGUGGCUAGACUGCCUCUCUGGAUUCCUCGUCACUCAGCAGGGCAUCUCUGAGAGAAAUGCC

Variants of: B1
Experiment: self-cleavage, relative activity (ratio to wild type); higher = more cleavage; in vitro, sequencing; the parent is a self-cleaving ribozyme
Work on C19U U85C U87G G88U A94G yielded a self-cleavage of 0.15. Work on C17U G35A A124G A140G yielded a self-cleavage of 0.2. Variant U15C U73C U100A has a self-cleavage of 1.76. Variant U15C U26C U130C A142G has a self-cleavage of 1.07. For U15C U85A U112C, the self-cleavage was 0. With C16U U46C U62C A77U A94C the self-cleavage was 0. Variant U20A G34C A65G U119C has a self-cleavage of 0. For C17U A129G U132C U134C, the self-cleavage was 2.16. U15G U52A C131A showed a self-cleavage of 0.65. With U15C U119C A124G the self-cleavage was 2.02. For C19U A94G U96C, the self-cleavage was 0. In the case of U15C U45C G54A, the self-cleavage is reported as 0.33. U15C U45A A129U showed a self-cleavage of 1.24. C19U G89A U134C gave a self-cleavage of 0. Variant C19G A117U U134G has a self-cleavage of 0.64. In the case of U20A G89A U96C U130C, the self-cleavage is reported as 0.03. Variant U15C G36A A79G U81A U87C has a self-cleavage of 0.23. U20A A117G U132A A136G U143A showed a self-cleavage of 2.63. Variant C19U A43U A141G has a self-cleavage of 0.96. With U15C G32U A79G the self-cleavage was 1.18. For C19U A30C A59U U91C, the self-cleavage was 0.27. With U20A A22G U134G A140G the self-cleavage was 0.63. For C18U U26A U45C U115C, the self-cleavage was 0.84. C16U U52C A77G A107G showed a self-cleavage of 2.3. In the case of U20A U26A U112A, the self-cleavage is reported as 0.76. C16A U100C A129G showed a self-cleavage of 1.46. With U20A U52A A67U A136G the self-cleavage was 0.24. In the case of U15C U130C U143A, the self-cleavage is reported as 2.51. With U20A A67U A92U the self-cleavage was 0.14. Work on C19A U45C A65G A92G U143C yielded a self-cleavage of 0. Work on U15C G32A A43G A67G A79U G126U yielded a self-cleavage of 1.22. With U15C U39A A79C U81C G105A the self-cleavage was 1.56. Variant U15C U102C U143C has a self-cleavage of 0.59. C17U U81C U104C gave a self-cleavage of 1.84. U20A G36C A57G gave a self-cleavage of 0.34. With C19U G55A A69G the self-cleavage was 0.04. U15C U85A U100C gave a self-cleavage of 0. For C17U G36U A43U A107G, the self-cleavage was 0.71. With C16A A43C U102C the self-cleavage was 0. With C18U U46C A136U the self-cleavage was 1.08. U15C U62A A92U showed a self-cleavage of 0.13. Variant U20A U45C A77G C118A has a self-cleavage of 2.17. For U15C U45C A67U A129G, the self-cleavage was 0.3. C19U U96C U115C showed a self-cleavage of 0.54. For U15C U20A A30G, the self-cleavage was 1.45. Work on U15C U62A C71U A141G yielded a self-cleavage of 0.07. For C17U U46A U132C, the self-cleavage was 0.92. Variant U15C U109C U115C has a self-cleavage of 1.08. C19U A117G U134C showed a self-cleavage of 1.06. U15C U85C U109A showed a self-cleavage of 0.24. With U15C U47G C99U the self-cleavage was 0.92. C19U U23C A64C A79G C98U A138G gave a self-cleavage of 0.06. Variant U20A U62C U108C has a self-cleavage of 0. For U15C U29A A94G A138G, the self-cleavage was 0. In the case of U15C U23A U26A C37U G54U U91C, the self-cleavage is reported as 0.15. Variant U20A A57G U81A has a self-cleavage of 1.4. C18U A57G U87C showed a self-cleavage of 0.3. Work on C18U A50G A77U yielded a self-cleavage of 0.58. For C19U G34A A129G A141G, the self-cleavage was 1.21. In the case of C17U G36A U47C, the self-cleavage is reported as 1.05. For C19U A117C A136U, the self-cleavage was 1.64. With C19U U39A U130C the self-cleavage was 2.87. Work on U15C U20A U52A U85A U119C A136G yielded a self-cleavage of 0.15. With U20A U26C U109C C110G the self-cleavage was 2. With U15C U96A A107U the self-cleavage was 0.12. C19U A22U U26C U62C U115C U119A showed a self-cleavage of 0.3. With C16U G35C U119A the self-cleavage was 0.36. C19U C118U U130C showed a self-cleavage of 1.81. In the case of C18U U47C C131U C146A, the self-cleavage is reported as 0.86. With U15C U20C A77G U112C the self-cleavage was 2.53. C19U A77U A129U showed a self-cleavage of 0.63. C19U A69C U87A gave a self-cleavage of 0.08. U15C G54A U132C gave a self-cleavage of 0.19. Variant U15C G36C U85C U108C C123U has a self-cleavage of 0.32. Work on U15C U39C A67G yielded a self-cleavage of 0.31. With U15C U29C A77G the self-cleavage was 1.77. For U20A U47A U119A, the self-cleavage was 1.36. C16U U26C U134C showed a self-cleavage of 0. With U15C U29C A136C the self-cleavage was 0.47. Work on U15C U85C U104C yielded a self-cleavage of 1.15. Variant C17U U102C U130C has a self-cleavage of 2.51. U15C U104C U109C gave a self-cleavage of 1.62. For U15C U46C U134A, the self-cleavage was 1.12. Variant C17U G55A U96A has a self-cleavage of 0.06. U15C G86A U115C showed a self-cleavage of 0. In the case of C16U A24U G36A U46C U62C U73A U134A, the self-cleavage is reported as 0.02. With C17A G70A C123G the self-cleavage was 0.1. Variant C19U A22G U39C has a self-cleavage of 0.57. Variant U15C G33U A94U has a self-cleavage of 0.21. C18A G48A A65U A142G showed a self-cleavage of 0.14. In the case of U15G U46C A117G, the self-cleavage is reported as 0. C19U G53A U81C U91C gave a self-cleavage of 0.27. In the case of C19U A94U C99A A129G, the self-cleavage is reported as 0.11. In the case of U20A C37U G44U U62G, the self-cleavage is reported as 0. In the case of U20A U26A U85C U112C A140U, the self-cleavage is reported as 0.13. For U15C U39C A50G U52A, the self-cleavage was 2.16. For U15C G36A C61U U100C, the self-cleavage was 0.02. U15G U87C U108C U134C showed a self-cleavage of 0.77. In the case of U20A U73A A138G, the self-cleavage is reported as 2.39. With U15C G88C U109A the self-cleavage was 0.2. For U15C U20A A140G, the self-cleavage was 0.69. U15C U29C A78U U134A showed a self-cleavage of 1.69. C16U A121G G135A gave a self-cleavage of 0.69. Variant U15C G36A A142G has a self-cleavage of 0.54. With U15C U20C A141G the self-cleavage was 1.55. Variant U20A A50U A94G A117G A121U has a self-cleavage of 0.53. Work on U15C U20G A92U U104C U109A yielded a self-cleavage of 1.64. For U20A G27C G32A A79G, the self-cleavage was 1.64. In the case of U15C U62C U73A, the self-cleavage is reported as 0.14. With U20A A69G A138G the self-cleavage was 0.2. Work on U15C G54A U100A A136G yielded a self-cleavage of 0.19. Variant C18A A31G U62C A138G has a self-cleavage of 0.1. In the case of U15C U39A U100C, the self-cleavage is reported as 0.24. Variant C16G U62C U87C has a self-cleavage of 0.1. With C16U A31G A50G G93A U100A the self-cleavage was 0. With C17U U39C U81G the self-cleavage was 0.77. In the case of U20A U47A U52C G82A, the self-cleavage is reported as 1.65. For U20A A77G C101U, the self-cleavage was 1.53. For C19U U20A U39C A57G U62C A78G U143C, the self-cleavage was 0. U20A C37G C90U gave a self-cleavage of 0.05. With U20A U45G U96A the self-cleavage was 0.05. U15C G35A A92G U119C gave a self-cleavage of 0.04. With C19U C99U U132A the self-cleavage was 0.48. C17U A107U A138U showed a self-cleavage of 1.6. U15C U62C A79U A94G gave a self-cleavage of 0. In the case of U20A U46A U62C, the self-cleavage is reported as 0.03. Variant U20A G27A U119A has a self-cleavage of 1.12. C18U U45C U91C gave a self-cleavage of 0.9. Variant U15C U29C A30C A50C G106U G126A U134A has a self-cleavage of 1.16. In the case of C18U A22G U26A A136G, the self-cleavage is reported as 0.47. With C19A U29C U134C the self-cleavage was 0.65. With U20A A107G U108C the self-cleavage was 2.37. U15C U46C G72A C98U A136G showed a self-cleavage of 0.83. In the case of U15C U20A G40A U96A, the self-cleavage is reported as 0. Work on C17U A69C U87C A124U A142U yielded a self-cleavage of 0.21. With U15C U29C U100C the self-cleavage was 1.53. In the case of C19U A69U U102A, the self-cleavage is reported as 0.13. C17U A43G G49A showed a self-cleavage of 0.36. U15C U52A A65G A92U C111U gave a self-cleavage of 0.03. Variant U15C U87C G93U A107G has a self-cleavage of 0.17. With U20A A43U U46A the self-cleavage was 1.38. In the case of U15C U47A G54A C76U, the self-cleavage is reported as 0.79. C17A U29C U85A U100A gave a self-cleavage of 0.14. In the case of U20A A50G U96C U119C, the self-cleavage is reported as 0. In the case of C17U A22U U26C A67G A78U, the self-cleavage is reported as 0.53. With U20A U26A U134C the self-cleavage was 0.64. C16A U39C A50G showed a self-cleavage of 1.23. In the case of U15C U85A U96C, the self-cleavage is reported as 0.17. In the case of U20A U52A U91C A94G U143C, the self-cleavage is reported as 0.48. For U15C U26C U47C G58U, the self-cleavage was 0.03. In the case of U15C U130C U134A, the self-cleavage is reported as 1.91. U20A A30U A67G U85C U132C gave a self-cleavage of 0.38. Work on U20A C51U U109C yielded a self-cleavage of 1.24. In the case of C16U U20A A77C A121G U130A, the self-cleavage is reported as 2.55. Variant C19A A129G A141G has a self-cleavage of 0.77. In the case of C16U A43U G125C, the self-cleavage is reported as 1.02. Variant C19U A50G A121G has a self-cleavage of 0.95. U15C G75C U85C U115G gave a self-cleavage of 0. In the case of C18U A42G A138G, the self-cleavage is reported as 0.62. C19U U132C A138G showed a self-cleavage of 1.47. Variant C18A A50G U109C has a self-cleavage of 0. U20A A22G A117U A140G showed a self-cleavage of 1.43. Variant U15C U62C A136G A142G has a self-cleavage of 0. Variant U15C U47A A69U has a self-cleavage of 0.1. With U20A A64U G114U C120A A138G the self-cleavage was 0.34. Work on U20A U62C A77U yielded a self-cleavage of 0.08. In the case of U20A U73A A142G, the self-cleavage is reported as 0.23.
